{"source": "paper PMC11006913", "origin": "cited, not measured here", "conditions_in_all_cases": "PBM; conditions not shown; double strand, one strand shown; scale: upbm affinity estimate (log intensity, higher = more binding, comparable within an allelic series)", "key": {"[1]": {"target": "ARX (Homo sapiens) (UniProt Q96QS3)"}, "[2]": {"target": "ARX L343Q (Homo sapiens) (UniProt Q96QS3)"}, "[3]": {"target": "ARX P353L (Homo sapiens) (UniProt Q96QS3)"}, "[4]": {"target": "ARX P353R (Homo sapiens) (UniProt Q96QS3)"}, "[5]": {"target": "ARX R332H (Homo sapiens) (UniProt Q96QS3)"}, "[6]": {"target": "PROP1 R112Q (Homo sapiens) (UniProt O75360)"}, "[7]": {"target": "ARX T333N (Homo sapiens) (UniProt Q96QS3)"}, "[8]": {"target": "PROP1 R99Q (Homo sapiens) (UniProt O75360)"}, "[9]": {"target": "PITX2 L100Q (Homo sapiens) (UniProt Q99697)"}, "[10]": {"target": "PITX2 R108H (Homo sapiens) (UniProt Q99697)"}, "[11]": {"target": "PITX2 R130W (Homo sapiens) (UniProt Q99697)"}, "[12]": {"target": "PITX2 T114P (Homo sapiens) (UniProt Q99697)"}, "[13]": {"target": "ISX (Homo sapiens) (UniProt Q2M1V0)"}, "[14]": {"target": "ISX R83Q (Homo sapiens) (UniProt Q2M1V0)"}, "[15]": {"target": "T1, HESX1 E149K (Homo sapiens) (UniProt Q9UBX0)", "T1 sequence": "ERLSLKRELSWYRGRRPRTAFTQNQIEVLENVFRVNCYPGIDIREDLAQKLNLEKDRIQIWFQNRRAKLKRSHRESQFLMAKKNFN"}, "[16]": {"target": "T2, HESX1 N125S (Homo sapiens) (UniProt Q9UBX0)", "T2 sequence": "T1 sequence with N31S, K55E"}, "[17]": {"target": "T3, HESX1 R160C (Homo sapiens) (UniProt Q9UBX0)", "T3 sequence": "T1 sequence with K55E, R66C"}}, "note": "Numbering of substitutions follows the chain as printed. This is one part of the list."}
{"sequence": "AATGAATT [8-mer AATGAATT]", "values": [{"measurement": "binding signal", "setting": "[1]", "result": 11.8}, {"measurement": "binding signal", "setting": "[2]", "result": 10.7}, {"measurement": "binding signal", "setting": "[3]", "result": 11.5}, {"measurement": "binding signal", "setting": "[4]", "result": 10.6}, {"measurement": "binding signal", "setting": "[5]", "result": 10.9}, {"measurement": "binding signal", "setting": "[6]", "result": 12.2}]}
{"sequence": "CCCGTCCC [8-mer CCCGTCCC]", "values": [{"measurement": "binding signal", "setting": "[1]", "result": 10.2}, {"measurement": "binding signal", "setting": "[2]", "result": 10.1}, {"measurement": "binding signal", "setting": "[3]", "result": 10.1}, {"measurement": "binding signal", "setting": "[4]", "result": 10}, {"measurement": "binding signal", "setting": "[5]", "result": 10.1}, {"measurement": "binding signal", "setting": "[7]", "result": 10.2}, {"measurement": "binding signal", "setting": "[6]", "result": 10.9}, {"measurement": "binding signal", "setting": "[8]", "result": 11}]}
{"sequence": "AGGGGTGC [8-mer AGGGGTGC]", "values": [{"measurement": "binding signal", "setting": "[1]", "result": 10.3}, {"measurement": "binding signal", "setting": "[2]", "result": 10.3}, {"measurement": "binding signal", "setting": "[3]", "result": 10.3}, {"measurement": "binding signal", "setting": "[4]", "result": 10.2}, {"measurement": "binding signal", "setting": "[5]", "result": 10.3}, {"measurement": "binding signal", "setting": "[7]", "result": 10.3}, {"measurement": "binding signal", "setting": "[9]", "result": 8.14}, {"measurement": "binding signal", "setting": "[10]", "result": 8.16}, {"measurement": "binding signal", "setting": "[11]", "result": 7.99}, {"measurement": "binding signal", "setting": "[12]", "result": 8.2}]}
{"sequence": "CCCCCCGA [8-mer CCCCCCGA]", "values": [{"measurement": "binding signal", "setting": "[1]", "result": 10.2}, {"measurement": "binding signal", "setting": "[2]", "result": 10.1}, {"measurement": "binding signal", "setting": "[3]", "result": 10.2}, {"measurement": "binding signal", "setting": "[4]", "result": 9.92}, {"measurement": "binding signal", "setting": "[5]", "result": 9.99}, {"measurement": "binding signal", "setting": "[7]", "result": 10.3}, {"measurement": "binding signal", "setting": "[13]", "result": 9.91}, {"measurement": "binding signal", "setting": "[14]", "result": 9.79}]}
{"sequence": "CGGGCTCC [8-mer CGGGCTCC]", "values": [{"measurement": "binding signal", "setting": "[1]", "result": 9.66}, {"measurement": "binding signal", "setting": "[2]", "result": 9.9}, {"measurement": "binding signal", "setting": "[3]", "result": 9.83}, {"measurement": "binding signal", "setting": "[4]", "result": 9.87}, {"measurement": "binding signal", "setting": "[5]", "result": 9.88}, {"measurement": "binding signal", "setting": "[7]", "result": 9.95}, {"measurement": "binding signal", "setting": "[13]", "result": 9.44}, {"measurement": "binding signal", "setting": "[14]", "result": 9.54}, {"measurement": "binding signal", "setting": "[9]", "result": 7.75}, {"measurement": "binding signal", "setting": "[10]", "result": 7.81}, {"measurement": "binding signal", "setting": "[11]", "result": 7.76}, {"measurement": "binding signal", "setting": "[12]", "result": 7.83}]}
{"sequence": "ATCGAATC [8-mer ATCGAATC]", "values": [{"measurement": "binding signal", "setting": "[1]", "result": 11.3}, {"measurement": "binding signal", "setting": "[2]", "result": 10.6}, {"measurement": "binding signal", "setting": "[4]", "result": 10.6}]}
{"sequence": "CCAGCCAG [8-mer CCAGCCAG]", "values": [{"measurement": "binding signal", "setting": "[1]", "result": 10.2}, {"measurement": "binding signal", "setting": "[2]", "result": 10.1}, {"measurement": "binding signal", "setting": "[3]", "result": 10.2}, {"measurement": "binding signal", "setting": "[4]", "result": 10.1}, {"measurement": "binding signal", "setting": "[5]", "result": 10.1}, {"measurement": "binding signal", "setting": "[7]", "result": 10.3}, {"measurement": "binding signal", "setting": "[13]", "result": 9.8}, {"measurement": "binding signal", "setting": "[14]", "result": 9.72}]}
{"sequence": "ATCATTGA [8-mer ATCATTGA]", "values": [{"measurement": "binding signal", "setting": "[1]", "result": 11.3}, {"measurement": "binding signal", "setting": "[2]", "result": 10.8}, {"measurement": "binding signal", "setting": "[3]", "result": 11.2}, {"measurement": "binding signal", "setting": "[4]", "result": 10.8}, {"measurement": "binding signal", "setting": "[7]", "result": 11.1}]}
{"sequence": "ACCCGACG [8-mer ACCCGACG]", "values": [{"measurement": "binding signal", "setting": "[1]", "result": 10.2}, {"measurement": "binding signal", "setting": "[2]", "result": 10.2}, {"measurement": "binding signal", "setting": "[3]", "result": 10.2}, {"measurement": "binding signal", "setting": "[4]", "result": 10.1}, {"measurement": "binding signal", "setting": "[5]", "result": 10.2}, {"measurement": "binding signal", "setting": "[7]", "result": 10.4}, {"measurement": "binding signal", "setting": "[9]", "result": 8.39}, {"measurement": "binding signal", "setting": "[10]", "result": 8.21}, {"measurement": "binding signal", "setting": "[11]", "result": 8.09}, {"measurement": "binding signal", "setting": "[12]", "result": 8.26}]}
{"sequence": "ATTAACGG [8-mer ATTAACGG]", "values": [{"measurement": "binding signal", "setting": "[1]", "result": 12.1}, {"measurement": "binding signal", "setting": "[2]", "result": 10.7}, {"measurement": "binding signal", "setting": "[3]", "result": 11.7}, {"measurement": "binding signal", "setting": "[4]", "result": 10.6}, {"measurement": "binding signal", "setting": "[5]", "result": 10.8}, {"measurement": "binding signal", "setting": "[7]", "result": 11.4}, {"measurement": "binding signal", "setting": "[9]", "result": 10}, {"measurement": "binding signal", "setting": "[10]", "result": 8.85}, {"measurement": "binding signal", "setting": "[11]", "result": 8.63}]}
{"sequence": "GACAATTA [8-mer GACAATTA]", "values": [{"measurement": "binding signal", "setting": "[3]", "result": 12.2}, {"measurement": "binding signal", "setting": "[15]", "result": 11.6}, {"measurement": "binding signal", "setting": "[16]", "result": 11.8}, {"measurement": "binding signal", "setting": "[17]", "result": 10.3}, {"measurement": "binding signal", "setting": "[13]", "result": 14.7}, {"measurement": "binding signal", "setting": "[14]", "result": 13.4}, {"measurement": "binding signal", "setting": "[6]", "result": 12.7}, {"measurement": "binding signal", "setting": "[8]", "result": 12.2}]}
